Reference: PubChem BioAssay AID1030 (National Center for Advancing Translational Sciences (NCATS), 2008)
The campaign covered roughly 220,000 compounds. About 16,000 (7.3%) were called active. This list was built around the results that the source calls inconclusive (neither active nor inactive); the mix of calls is not that of the screen. The call rests on the fitted dose curve; in most records, active means well fitted inhibition curve with a large enough effect (not every such curve was filed as active); inconclusive means small, poorly fitted or top-dose-only effect, or another doubt; inactive means no such curve, though single readings can be large or run the other way. No potency is given beside an inconclusive call; the fits are too rough.

Molecular target: Aldehyde dehydrogenase 1A1 (Homo sapiens) (UniProt P00352)
Sequence of UniProt P00352 (P00352 whole entry, looked up): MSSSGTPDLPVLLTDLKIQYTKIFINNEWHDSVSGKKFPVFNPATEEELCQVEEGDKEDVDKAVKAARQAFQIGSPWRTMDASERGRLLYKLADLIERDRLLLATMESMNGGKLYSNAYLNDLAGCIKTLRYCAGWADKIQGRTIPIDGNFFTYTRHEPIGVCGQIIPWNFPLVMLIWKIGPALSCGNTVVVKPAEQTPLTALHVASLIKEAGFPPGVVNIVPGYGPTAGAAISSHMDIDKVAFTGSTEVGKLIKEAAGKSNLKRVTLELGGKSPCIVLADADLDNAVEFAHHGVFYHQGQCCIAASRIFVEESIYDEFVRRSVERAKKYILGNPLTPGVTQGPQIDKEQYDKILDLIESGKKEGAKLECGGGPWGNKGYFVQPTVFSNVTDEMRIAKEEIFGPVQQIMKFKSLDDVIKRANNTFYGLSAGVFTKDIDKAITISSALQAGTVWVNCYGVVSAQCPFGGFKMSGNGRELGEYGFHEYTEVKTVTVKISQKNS
Assay: qHTS Assay for Inhibitors of Aldehyde Dehydrogenase 1 (ALDH1A1)
Settings: Purified ALDH1A1, NADH fluorescence, propionaldehyde substrate; series mostly up to 75.3 µM
Potency means the concentration at half of the fitted maximal effect; tags describe the fitted curve by direction and shape.

| Structure (SMILES) | Potency |
| --- | --- |
| COC(=O)CSC(C)C(=O)Nc1nnc(C(C)C)s1 (stereo unspecified) | inactive |
| CCOC(=O)CSc1nnc(CNc2ccc(Cl)cc2)n1-c1ccccc1 | active: 10 µM |
| CC(C)(C)c1ccc(C(=O)Nn2c(CCC(=O)O)ccc2-c2cccs2)cc1 | inconclusive [inhibitor, single point] |
| COc1ccc(CC(=O)OCC(=O)NCc2ccc(Cl)cc2)cc1 | inactive |
| CCOc1ccc(C2CC(=O)n3nc(C45CC6CC(CC(C6)C4)C5)nc3S2)cc1OC (stereo unspecified) | inconclusive [inhibitor, partial curve] |
| COc1ccc(S(=O)(=O)N(C)c2ccc(C(=O)NCC3CCCO3)cc2)cc1 (stereo unspecified) | inactive |
| O=C(NNC(=O)c1cccs1)c1ccc([N+](=O)[O-])cc1 | inactive |
| CN(/N=C/c1ccncc1)c1cnc2ccccc2n1 | inactive |
| O=C(COC(=O)/C=C/c1ccc([N+](=O)[O-])cc1)NCc1ccc2c(c1)OCO2 | inactive |
| CC1CCCCN1C(=O)CCn1c(=S)oc2ccccc21 (stereo unspecified) | inconclusive [inhibitor, single point] |
| CCOC(=O)c1cc2c(C)n(-c3ccc(OCC)cc3)c(C)c2ccc1=O | inconclusive [inhibitor, single point] |
| C=CCOC(=O)CCCC(=O)NC1CCCCC1 | inconclusive [inhibitor, single point] |
| COC(=O)C(NS(=O)(=O)c1ccc(NC(C)=O)cc1)C(C)C (stereo unspecified) | inactive |
| O=[N+]([O-])c1ccc(N2CCN(CCOc3nonc3-c3ccccc3)CC2)c(Cl)c1 | inconclusive [inhibitor, single point] |
| O=C(CCN1C(=O)C2C3C=CC(C3)C2C1=O)N1CC(=O)N(CCc2ccccc2)C(=O)C1 (stereo unspecified) | inconclusive [inhibitor, partial curve] |
| CN1C(=O)c2oc3ccccc3c(=O)c2C1c1ccncc1 (stereo unspecified) | inconclusive [inhibitor, single point] |
| Cc1ccc(C(=O)NCC(=O)OCC(=O)c2ccc3c(c2)NC(=O)CO3)cc1 | inactive |
| Cc1cc(C)n2c(nc3ccccc32)c1C(=O)NCc1ccccc1 | inconclusive [inhibitor, single point] |
| O=C(O)c1ccccc1-c1ccccc1C(=O)NNc1ccccc1 | inconclusive [inhibitor, single point] |
| CCC(C)c1ccc(-c2cc(C(=O)OCC(=O)Nc3cc(C)on3)c3ccccc3n2)cc1 (stereo unspecified) | inconclusive [inhibitor, single point] |
| CN1CCN(c2ncncc2-c2ccccc2Cl)CC1 | inactive |
| CCc1ccc(/C=C2\SC(=S)N(CCCC(=O)Nc3nccs3)C2=O)cc1 | inconclusive [inhibitor, single point] |
| O=C1NCCN(Cc2ccoc2)C1CC(=O)N(Cc1ccccc1)CC1CCC1 (stereo unspecified) | inconclusive [inhibitor, single point] |

| Structure (SMILES) | Potency |
| --- | --- |
| CCCCNC(=S)N(Cc1ccco1)Cc1cc2cc3c(cc2[nH]c1=O)OCCO3 | inconclusive [inhibitor, single point] |
| CSc1nc(NCCCO)c2c3c(sc2n1)CN(C)CC3 | inconclusive [inhibitor, partial curve] |
| Cc1oc(-c2ccccc2)nc1CS(=O)CC(=O)N1CCc2ccccc2C1 (stereo unspecified) | active: 25.1 µM |
| S=c1cnc2ccccc2[nH]1 | active: 3.16 µM |
| O=C1C2C3C=CC([C@@H]2C(=O)N1C1CC1)[C@H]1C(=O)N(C2CC2)C(=O)C31 (stereo partly specified) | inconclusive [inhibitor, partial curve] |
| CCCCNC(=O)c1ccc(-n2c(=S)[nH]c3ccccc3c2=O)cc1 | inactive |
| Cc1cc(C(=O)OCC(=O)c2cccs2)c2ccccc2n1 | inconclusive [inhibitor, single point] |
| O=C(c1ccc(-c2ccccc2)cc1)C1CCCN(Cc2ccncc2)C1 (stereo unspecified) | inconclusive [inhibitor, full curve, poor fit] |
| Cc1[nH]n(-c2ccccc2)c(=O)c1/C=N/N(c1ccccc1)c1ccccc1 | inactive |
| Cc1cc(C(=O)CSc2nnnn2-c2ccc(O)cc2)c(C)n1C | active: 15.8 µM |
| NS(=O)(=O)c1ccc(N2C(=O)C3CC=CCC3C2=O)cc1 (stereo unspecified) | inconclusive [inhibitor, single point] |
| Nc1c(C(=O)OCC2CCCO2)c2nc3ccccc3nc2n1-c1ccc2c(c1)OCCO2 (stereo unspecified) | inconclusive [inhibitor, partial curve] |
| CC1OC(Nc2cccc3ccccc23)C(O)C(O)C1O (stereo unspecified) | inconclusive [inhibitor, partial curve] |
| CCNC(=O)c1cc2c(=O)n3cccc(C)c3nc2n(CCc2ccccc2)c1=N | inconclusive [inhibitor, partial curve] |
| CC(C)CCn1c(COc2ccccc2)n[nH]c1=S | inactive |
| Cc1ccc(-c2ccc(CCC(=O)O)n2-c2cccc(O)c2)cc1 | inconclusive [inhibitor, partial curve] |
| Cn1c(C2=C(O)CN(Cc3ccccc3)C2=N)nc2ccccc21 | inconclusive [inhibitor, full curve, poor fit] |
| CNc1nc2c(C)cccn2c(=O)c1C=Nc1ccc(OC)cc1 | inconclusive [inhibitor, single point] |
| O=C1c2ccccc2C(=O)c2c1cccc2N1CCCC1 | inconclusive [inhibitor, single point] |
| CCOC(=O)CNC(=O)c1cn(C)c(=O)c2cc(OC)c(OC)cc12 | inconclusive [inhibitor, single point] |
| Cc1cccc(-c2noc(CN(C(=O)c3ccc4c(c3)OCO4)C(C)C)n2)c1 | inconclusive [inhibitor, single point] |
| Nc1nnc(Cc2ccc(Cl)c(Cl)c2)s1 | inconclusive [inhibitor, single point] |
| CCc1c2c(nc3ccc(OC)cc13)OC(CC)C2 (stereo unspecified) | inactive |
